The source of these data is PubChem BioAssay AID463173 (ICCB-Longwood Screening Facility, Harvard Medical School, 2010).

The campaign covered roughly 52,000 compounds. About 1,700 (3.3%) were called active. Rule as the data show it: active = survival mostly below about 52% (no sharp cut-off); inactive = mostly above about 56%. Some of the results follow.

This test has as its system Wild type. The test is described as follows: growth inhibition of S. aureus wild type versus tarO mutant, primary screen, teichoic acid synthesis inhibitors, RN4220, OD600 (AID 463173). Particulars: S. aureus RN4220 wild type/DeltatarO growth, OD600, 18 h, active compounds read low, screened at 18.75 µg/mL (by protocol).
As for `CCN(CC)c1ncnc2ccc(Br)cc12`, the survival was inactive: 109%.

Turning to `Cc1ccc(Cl)cc1NC(=O)c1oc2ccc(S(=O)(=O)N3CCCCCC3)cc2c1C`, the survival is inactive: 92%. Then `Cc1cc(C)cc(OCC(=O)N2CCC(c3nc4ccccc4s3)CC2)c1`, with inactive: 82%; and `Cc1cc(C(=O)O)c(CN2CCCC2)o1`, with inactive: 109%. Then `O=C(O)CCCC(=O)n1cnc2ccccc21`, with inactive: 108%; and `CCc1cccc(C)c1NC(=O)CSc1nc2c(c(=O)[nH]1)CCC2`, with inactive: 110%. Next, `CCCN1C(=O)C(Cc2nc3ccccc3c(=O)n2-c2ccc(OC)cc2)c2cc(C)ccc21` (configuration not stated): inactive: 80%. With `CCCN(C(=O)Nc1cn(CC(C)C)c(=O)c2ccccc12)c1ccc(F)cc1`, the survival was inactive: 85%.

In the case of `O=C(Nc1ccccc1)NC1(C(=O)NCc2ccc3c(c2)OCO3)CCCCC1`, the survival is inactive: 106%. Take `Cc1ccc2oc(=O)n(CCNC(=O)Nc3ccc(Cl)cc3)c2c1`: the survival was inactive: 79%. With `Cc1cc(C(=O)NCc2ccccc2Cl)c2c(C)nn(-c3cccc(F)c3)c2n1`, the survival is inactive: 74%. On to `O=C(NCC(c1ccco1)S(=O)(=O)c1cccs1)c1ccc(Cl)cc1` (configuration not stated), for which the survival is inactive: 81%. Then `CC(=O)N1CCc2c(sc3c2c(=O)n(-c2ccc(C)cc2)c(=O)n3Cc2ccccc2C)C1`, with inactive: 129%; and `CCCCNC(=O)c1ccc2c(c1)NC(=O)C(CS(=O)(=O)Cc1ccc(C)cc1)N2` (configuration not stated), with inactive: 72%; and `Cc1ccc(C(=O)Nc2ccc3oc(-c4ccccc4C)nc3c2)cc1`, with inactive: 84%. Next, `S=c1[nH]c2ccc3ccccc3c2[nH]1`: inactive: 105%; `Cc1cc(NC(=O)c2cccn2-c2nnc(N3CCCCC3)s2)ccc1Br`: inactive: 121%. Next, `CCN1CCN(c2oc(/C=C/c3cc(OC)c(OC)c(OC)c3)nc2C#N)CC1`: inactive: 91%.

As for `O=C(NCc1cccs1)c1c[nH]c2c(F)cccc2c1=O`, the survival was inactive: 100%. Then `CCCCN(C)S(=O)(=O)c1ccc(C(=O)Nc2ccc(-c3nc4ccc(C)cc4s3)cc2)cc1`, with inactive: 87%.

On to `CC(C)C(=O)OCc1cc(=O)n2nc(C3CC3)sc2n1`, for which the survival was inactive: 93%. As for `COc1cc(OC)c(C2C(C(=O)Nc3ccccc3)=C(C)Nc3ncnn32)cc1OC` (configuration not stated), the survival is inactive: 74%. Next, `COc1ccc(-c2noc(CC(=O)Nc3ccc(C)c(F)c3)n2)cc1`: inactive: 88%; `Cc1cc(Cl)ccc1NC(=O)CCCn1nc(C)c2c(C)n(-c3ccccc3)nc2c1=O`: inactive: 118%; `CCc1ccc(C2c3c(oc4cc(C)c(C)cc4c3=O)C(=O)N2c2nc(C)c(C(=O)OC)s2)cc1` (configuration not stated): inactive: 80%. Turning to `CCC1CN(C(=O)Nc2cc(Cl)c(OC)cc2OC)c2ccccc2O1` (configuration not stated), the survival is inactive: 85%. Turning to `COc1cc(C2Nc3ccccc3-c3nnc(SCc4ccc(C)cc4)nc3O2)cc(OC)c1O` (configuration not stated), the survival was inactive: 124%. Next, `CCc1nn(CC(=O)NCCCc2ccccc2)c(=O)c2cc3ccccc3n12`: inactive: 83%; `Cc1c(Cl)cccc1NC(=O)Cn1c(=O)n(Cc2nc(-c3ccccc3)no2)c(=O)c2cc3c(cc21)OCO3`: inactive: 135%. Then `CSc1ccc(CCNC(=O)c2cc3cc4cc(C)ccc4nc3s2)cc1`, with inactive: 148%; and `Cc1ccc(Cn2c(=O)c3cccnc3n(CC(=O)Nc3cc(Cl)ccc3C)c2=O)cc1`, with inactive: 82%. Next, `CCCC(=O)Nc1cccc(-c2cn3c(C)csc3n2)c1`: active: -6%; `CCc1ccc(CNC(=O)c2cnc3c(C)cccn3c2=O)cc1`: inactive: 66%; `Cc1c(Cl)cccc1NC(=O)C1CCN(c2nc3ccccc3[nH]2)CC1`: inactive: 69%.

In the case of `Cc1ccc(Nc2cc(C)c(C#N)c3nc4ccccc4n23)c(C)c1`, the survival is inactive: 67%. Then `Cc1ccccc1N1CC(c2nnc(NC(=O)c3ccco3)s2)CC1=O` (configuration not stated), with inactive: 94%; and `CCn1c(C(NC(=O)c2ccc(C)cc2)C(C)C)n[nH]c1=S` (configuration not stated), with inactive: 116%; and `CCOC(=O)C1CCCN(S(=O)(=O)c2ccc(OC)cc2)C1` (configuration not stated), with inactive: 110%. Next, `CCn1c(SCC(N)=O)nc2ccccc21`: inactive: 116%. Next, `Cc1cccc(N2CCN(Cc3cc(=O)oc4cc(C)ccc34)CC2C)c1` (configuration not stated): inactive: 84%. Regarding `CC(C)c1ccc(CNc2nc(-c3ccco3)nn2S(=O)(=O)c2ccc(F)cc2)cc1`, the survival is inactive: 88%. `CCCC1(C(=O)OC)NC(c2ccco2)C2C(=O)N(C)C(=O)C21` (configuration not stated): the survival is inactive: 106%. Take `Cc1cccc(NC(=O)N2CCC(N3CCN(Cc4ccccc4)C(=O)C3=O)CC2)c1C`: the survival was inactive: 65%. Next, `Cc1cc(C)cc(NC(=O)CN2CCC(NC(=O)Cc3ccccc3)CC2)c1`: inactive: 111%; `Cc1sc2nc3n(c(=O)c2c1C)NC(=O)CC3`: inactive: 106%. `CC(C)(C)C1CCc2onc(C(=O)Nc3sc4c(c3C#N)CCCC4)c2C1` (configuration not stated): the survival was inactive: 115%.

With `CCOc1ccccc1C(=O)NC1CCNCC1`, the survival is inactive: 109%. Regarding `COc1cc(N)c(Cc2nccc3cc(OC)c(OC)cc23)cc1OC`, the survival was inactive: 106%. Turning to `CCc1ccc(N2CC(C(=O)NC(C)CC)CC2=O)cc1` (configuration not stated), the survival is inactive: 100%. Then `COc1ccccc1-c1coc2c(CN(C)C)c(O)ccc2c1=O`, with inactive: 112%; and `O=C(c1cc(-c2ccc(F)cc2)on1)N1CCN(c2ccc(F)cc2)CC1`, with inactive: 85%; and `CCCC1N=C2c3ccccc3N=C(SCC(=O)NCCc3ccc(Cl)cc3)N2C1=O` (configuration not stated), with inactive: 92%. Consider `CCCCNS(=O)(=O)c1ccc2nc(-c3cccnc3)cc(C(=O)NC(C)C)c2c1`, for which the survival was inactive: 84%. Next, `Cn1nc(C(=O)N2CCN(c3ccccc3F)CC2)c2c1-c1ccccc1S(=O)(=O)C2`: inactive: 81%; `O=C(CN1C(=O)c2cccc3cccc1c23)Nc1ccccc1Br`: inactive: 73%. With `CCn1c(C(=O)Nc2ccc(C)cc2C)cc2sc(Cl)cc21`, the survival was inactive: 68%. In the case of `Cc1oc2ncnc(N3CCOCC3)c2c1C(=O)NCCc1ccccc1`, the survival is inactive: 85%. As for `CCOC(=O)c1ccccc1NC(=O)c1cc2ccc3cccnc3c2[nH]1`, the survival is inactive: 121%. Next, `CC(C)NC(=O)c1ccc2c(c1)nc1n2CCCCC1`: inactive: 77%; `CCOC(=O)COc1ccc(C)cc1C(=O)c1ccn2nc(-c3ccc(Cl)cc3)cc2n1`: inactive: 105%.

On to `Cc1ccc(Nc2nc3ccc(C(=O)c4ccccc4)cc3n3c(C)nnc23)c(C)c1`, for which the survival was inactive: 79%. Next, `Cc1sc2ncn(CC(=O)N(C)c3ccc(C(C)C)cc3)c(=O)c2c1S(=O)(=O)N1CCC(C)CC1`: inactive: 82%.

`COc1ccc(-c2noc(CC(=O)Nc3cc(OC)ccc3OC)n2)cc1`: the survival was inactive: 89%.

With `NC(=O)c1cc2c(ccc3ccccc32)oc1=O`, the survival is inactive: 113%. As for `Cc1ccc(NS(=O)(=O)c2ccc3nc(-c4ccccc4)[nH]c3c2)c(Br)c1`, the survival was inactive: 63%. Regarding `CC1CCC(NC(=O)C2(C)Cc3ccccc3C(=O)N2Cc2ccc(Cl)cc2)CC1` (configuration not stated), the survival is inactive: 81%. As to `CC(=O)c1cccc(NC(=O)CN2C(=O)CC(c3ccc(C)cc3C)=Nc3ccccc32)c1`, the survival is inactive: 152%. With `CCCn1c(=O)c2sccc2n2c(CCCC(=O)N3CCN(c4cccc(Cl)c4)CC3)nnc12`, the survival is inactive: 86%. Then `CCCCN(CC)CCCNC(=O)c1cn(CC)c2ccc(S(=O)(=O)N3CCc4ccccc4C3)cc2c1=O`, with inactive: 76%; and `O=C(/C=C/c1ccc(Cl)cc1)N1CCC(c2nc3ccccc3o2)CC1`, with inactive: 120%; and `CCc1ccccc1NC(=O)CCC(=O)N1CC(C)Oc2ccc(C)cc21` (configuration not stated), with inactive: 80%. Then `COc1ccc(CCNCc2c(C(=O)O)c(C)n(Cc3cccc(Cl)c3)c2C)c(OC)c1OC`, with inactive: 88%; and `CCc1cc2c(cc3c(=O)n(CC(=O)N4CCN(c5cccc(C)c5C)CC4)nc(CC)n32)s1`, with inactive: 74%. Next, `Cc1ccc(C)c(N2CCN(S(=O)(=O)c3ccc(C(=O)N(C)C)s3)CC2)c1`: inactive: 75%; `Cc1nc2cc(N3CCN(C)CC3)c(NC(=O)C(C)(C)C)cc2c(=O)n1Cc1ccccc1`: inactive: 110%; `O=C(Cn1cc(C(=O)c2ccccc2)c(=O)c2cc3c(cc21)OCCO3)Nc1ccc(F)c(F)c1`: inactive: 109%.

Turning to `COc1ccc(CCNC(=O)c2cc3c(=O)n(C)c4ccccc4c3s2)cc1OC`, the survival was inactive: 71%.

As to `COc1ccc(NC(=O)c2c(NC(=O)COc3ccccc3)sc3c2CCCCC3)cc1`, the survival is inactive: 73%. For the molecule `CCOc1ccccc1CNS(=O)(=O)c1cc2c(cc1C)NC(=O)CO2`, the survival was inactive: 148%. `Cc1ccccc1CNC(=O)CCC(=O)N1CCSc2ccccc21`: the survival is inactive: 80%.

For the molecule `O=C(Cn1cc(S(=O)(=O)Cc2ccccc2Cl)c2ccccc21)NCCc1ccccc1`, the survival is inactive: 65%. Next, `COc1ccc(NC(=O)CC2C(=O)N(c3cccc(OC)c3)C(=O)N2CCC2=CCCCC2)cc1` (configuration not stated): inactive: 136%; `CCOc1ccc(CC(=O)NCc2ccc3c(c2)CCN3C(=O)c2ccccc2)cc1OCC`: inactive: 71%.

For `CCn1nnc2cc(C(=O)Nc3cc(C)ccc3C)ccc21`, the survival was inactive: 98%. Next, `O=C(NCc1ccc(F)cc1)C(=O)Nc1ccc2nc3n(c(=O)c2c1)CCCCC3`: inactive: 95%.

For the molecule `COc1ccc(NC(=O)CCNS(=O)(=O)c2ccc3c(c2)CCCC(=O)N3)cc1`, the survival is inactive: 73%. Take `Cc1ccc(-c2cc3ncc4c(n3n2)-c2cc(Cl)ccc2OC4)cc1`: the survival is inactive: 97%. Next, `Cc1cccc(CN2CCN(CC(=O)NCCc3ccc(Cl)cc3)C2=O)c1`: inactive: 84%; `CCCCNC(=O)c1c[nH]c2ccc(C)cc2c1=O`: inactive: 97%; `Cc1cc(C)c(NC(=O)c2oc3c(c2C)-c2[nH]ncc2CC3)c(C)c1`: inactive: 81%. Next, `CCCCOc1ccc(C(=O)NCc2cn3cccc(C)c3n2)cc1`: inactive: 93%; `Cc1ccc(C(=O)Nc2ccc(C(=O)O)cc2)cc1S(=O)(=O)N1CCC(C)CC1`: inactive: 91%.
